Out of some 110,000 compounds screened, about 230 (0.21%) showed an effect of 50% or more. The list shows a part of the results.
biological target: DPAP1 (Plasmodium falciparum, UniProt Q8IIJ9); experiment: primary screen, percent inhibition; read by cleavage of a fluorogenic dipeptide substrate; higher = more effect of the substance; set-up: species or system P. falciparum D10 trophozoite lysates; single well
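Note: 30 min substrate incubation versus DMSO and 10 µM JCP410 controls.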

DPAP1, sequence (Q8IIJ9 whole entry, looked up): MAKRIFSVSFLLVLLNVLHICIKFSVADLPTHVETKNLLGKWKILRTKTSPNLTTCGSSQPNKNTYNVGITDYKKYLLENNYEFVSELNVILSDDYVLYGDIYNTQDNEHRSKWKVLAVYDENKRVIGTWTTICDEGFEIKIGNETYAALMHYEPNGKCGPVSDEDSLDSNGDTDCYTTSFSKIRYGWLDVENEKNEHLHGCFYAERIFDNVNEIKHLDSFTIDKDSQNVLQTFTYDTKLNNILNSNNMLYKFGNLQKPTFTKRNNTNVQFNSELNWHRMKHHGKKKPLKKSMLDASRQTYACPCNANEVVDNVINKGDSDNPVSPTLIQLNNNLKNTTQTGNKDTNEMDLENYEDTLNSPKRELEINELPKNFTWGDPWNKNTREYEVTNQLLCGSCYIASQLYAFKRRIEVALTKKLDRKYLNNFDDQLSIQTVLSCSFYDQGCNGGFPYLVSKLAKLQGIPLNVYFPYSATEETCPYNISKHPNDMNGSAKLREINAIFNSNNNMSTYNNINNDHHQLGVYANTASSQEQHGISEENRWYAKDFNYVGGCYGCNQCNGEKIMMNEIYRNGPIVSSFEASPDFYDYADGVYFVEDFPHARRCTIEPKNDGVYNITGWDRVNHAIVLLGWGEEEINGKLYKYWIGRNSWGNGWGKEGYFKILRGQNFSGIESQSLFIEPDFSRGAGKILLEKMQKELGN

| Compound | % Inhibition @ 10 uM [%] |
| --- | --- |
| CCOC(=O)c1nnn(-c2nonc2N)c1CSc1nc(C)cc(C)n1 | 15.9 |
| CC(C)(C)NS(=O)(=O)c1ccc(OCC(=O)Nc2cccc(F)c2)cc1 | 1.39 |
| O=C1Cc2ccccc2C(c2ccc(Cl)cc2)N1 (stereo not drawn) | -3.35 |
| COc1ccc(CCNCc2cccc(C(F)(F)F)c2)cc1 | -0.582 |
| CCOC(=O)c1cc2c(=O)n3ccccc3nc2n(CCOC)/c1=N/C(=O)c1ccncc1 | -1.2 |
| O=C(Nc1ccccc1C(F)(F)F)C1CC(=O)N(c2ccccc2)C1 (stereo not drawn) | 3.67 |
| Cc1ccc(-n2cnnn2)cc1S(=O)(=O)NC(C)(C)C | 4.57 |
| COc1ccc(-c2[nH]nc3c2C(c2cccnc2)NC3=O)cc1 (stereo not drawn) | -5.22 |
| COc1ccc(S(=O)(=O)NCCSCc2ccccc2)c(Cl)c1Cl | -1.84 |
| COc1ccc2c(c1)CC/C(=C/c1ccco1)C2=O | 8.9 |
| C=CCSc1nc(O)c(C(c2ccccc2)c2ccccc2)c(O)n1 | 1.14 |
| CCCC12CCC(=O)C=C1CCCC2=O (stereo not drawn) | -2.32 |
| CCN(CCN(C)C)C1CCCCCC1 | 4.28 |
| CCOCCCNC(=O)Cn1ncc2c(C)n(Cc3ccc(F)cc3)c(C)c2c1=O | -0.447 |
| Cc1cc(N2CCOCC2)ccc1/C=C1\SC(=O)N(C(C)C)C1=O | -0.0619 |
| Cc1ccccc1C(=O)Nc1ccc(Cl)c(Cl)c1 | -2.54 |
| CC1=C(C(=O)Nc2ccccc2)C(c2cccs2)C(C#N)=C(SCc2ccccc2)N1 (stereo not drawn) | -2.44 |
| CCCOc1ccc(N2C(=O)CC(N3CCOCC3)C2=O)cc1 (stereo not drawn) | 1.22 |
| O=C(NCc1ccco1)c1ccccc1NC(=O)C1CCCCC1C(=O)O (stereo not drawn) | 0.843 |
| Cc1cccc(NC(=O)c2ccc([N+](=O)[O-])cc2)c1C | -0.268 |
| Cc1sc2ncn3cnnc3c2c1C | 0.774 |
| CC(NC(=O)COCc1cc(-c2ccc3c(c2)OCO3)on1)c1ccccc1 (stereo not drawn) | 6.27 |
| O=C(O)C1CC=CCC1C(=O)NC1CCCCCCC1 (stereo not drawn) | 0.161 |
| COc1ccc(NC(=O)C2COc3ccccc3O2)cc1OC (stereo not drawn) | 4.37 |
| CC(=O)N1CCC(NC(Cc2ccccc2)c2ccccc2)CC1 (stereo not drawn) | 1.9 |
| CCOc1ccc(/C=c2\sc3nc(-c4ccccc4C)nn3c2=O)cc1OC | 0.561 |
| COc1ccc(C2NC(=O)NC3=C2CCc2ccccc23)cc1 (stereo not drawn) | -1.33 |

| Compound | % Inhibition @ 10 uM [%] |
| --- | --- |
| O=S(=O)(Nc1cc(Cl)cc(Cl)c1)c1ccc(Cl)cc1 | -1.84 |
| COc1cc(C2C3=C(O)CC(C)(C)CC3=NC(C)=C2C(=O)Nc2ccc(F)cc2F)ccc1O (stereo not drawn) | -1.86 |
| COc1ccc(C2C3=C(O)CCCC3=Nc3nc(-c4ccccc4C)nn32)cc1 (stereo not drawn) | -5.15 |
| Cc1ccc(C#N)c(SCc2cc3c(cc2Cl)OCO3)n1 | -8.15 |
| CC(C1CC1)N(Cc1ccccc1)C(=O)NC(=O)c1cccc(F)c1 (stereo not drawn) | 2.41 |
| Cc1cc(C)c(NC(=O)CN(c2cc(Cl)ccc2Cl)S(C)(=O)=O)c(C)c1 | 2.43 |
| O=C(NCc1ccco1)c1ccc2ccccc2n1 | -1.43 |
| COC(=O)c1sccc1S(=O)(=O)N1CCN(Cc2ccccc2)CC1 | -6.31 |
| Cc1ccc(OCC(=O)Nc2cccc3ccccc23)cc1 | -0.95 |
| Fc1ccccc1N1CCN(Cc2ccc(Br)cc2)CC1 | 1.38 |
| COC(=O)c1ccc(/C=C/C(O)=C2/C(=O)N(C)C3(C)CC2c2cc(Br)ccc2O3)cc1 (stereo not drawn) | 1.91 |
| Cc1ccc(Nc2nn(CCC#N)c(=S)n2-c2ccc(C)cc2)cc1 | 0.0345 |
| CC(C)(C)c1ccc(C(=O)Nc2sc3c(c2C(=O)NC2CCS(=O)(=O)C2)CCCC3)cc1 (stereo not drawn) | 1.88 |
| OC1CCN(Cc2ccc(F)c(F)c2)CC1 | -6.36 |
| C(=C\c1ccccc1)/CNCCCSc1nnnn1-c1ccccc1 | -2.88 |
| Cc1ccccc1C(=O)Nc1ccc(-c2cn3ccsc3n2)cc1 | 1.37 |
| Cc1oc2ncn(C)c(=O)c2c1C(=O)N1CCC(Cc2ccccc2)CC1 | -9.84 |
| Cc1ccccc1Cn1cnc2ccccc21 | 1.8 |
| O=C(Cc1ccccc1)n1cnc2ccccc21 | 2.14 |
| COc1cccc(NC(=O)C2CC2(c2ccc(C)cc2)c2ccc(C)cc2)c1 (stereo not drawn) | -5.47 |
| CN(C)CCN(C)Cc1c[nH]c2ccccc12 | -3.27 |
| CCn1c(COc2cccc3cccnc23)nc2ccccc21 | 4.94 |
| COCc1cc(C)nc2sc(C(=O)NC3CCCCC3)c(N)c12 | -2.87 |
| CSC1=NSC2=NC(=O)/C(=C\c3ccccc3Cl)C(=N)N12 | 5.5 |
| CNC(=O)Cn1c2ccccc2c2cnnc(O)c21 | 3 |
| C=CCOc1ccc(/C=c2\sc3nc(-c4cc(OC)c(OC)c(OC)c4)nn3c2=O)cc1 | -1.18 |
| CCCOc1ccc(-c2nonc2NC(=O)COc2cccc(C)c2)cc1OCCC | -3.47 |

| Compound | % Inhibition @ 10 uM [%] |
| --- | --- |
| CCCCCC1CCC(C2CCC(C(=O)O)CC2)CC1 (stereo not drawn) | 0.98 |
| c1ccc(Oc2cc(-c3ccccc3)ncn2)cc1 | -2.82 |
| c1ccc(C2N3CCCN23)cc1 (stereo not drawn) | -1.08 |
| O=S(=O)(NCCc1ccc(Cl)cc1)c1ccc(-c2ccc(O)nn2)s1 | -1.97 |
| O=C1NCCN/C1=C\C(=O)c1ccccc1 | -4.35 |
| Cc1cc(C)cc(-n2nnc(-c3nsc(NC(=O)c4cccs4)n3)c2C)c1 | -4.14 |
| CCC1CCCCN1Cc1ccc(OC)c(C)c1 (stereo not drawn) | 4.28 |
| Cc1ccc(CSc2nc(C)cc(C)c2C#N)cc1 | -0.413 |
| CC(=O)N(Cc1ccco1)C1CC(=O)N(c2ccc(Br)cc2)C1=O (stereo not drawn) | 1.34 |
| Cc1cc(C)c2ccc(C(=O)O)nc2c1O | -7.35 |
| O=C(Nc1ccccc1Oc1ccccc1)c1ccc2c(c1)OCO2 | -4.33 |
| O=C(NCc1ccccc1)C1CCCN1C(=O)OCc1ccccc1 (stereo not drawn) | -1.65 |
| CCOc1ccccc1N1CCN(Cc2ccc(C(F)(F)F)cc2)CC1 | 0.847 |
| Cc1occc1-c1nnc2sc(/C=C/c3ccc(F)cc3)nn12 | 3.46 |
| CCC(C)NC(=O)C(=O)NCCc1ccccc1 (stereo not drawn) | -0.0648 |
| C(=C\c1cccs1)/C1=NN(c2ccccc2)C(c2cccs2)C1 (stereo not drawn) | -9.41 |
| COc1ccc(OC)c(CN(C)CCN(C)C)c1 | -2.6 |
| O=C(NCCCN1CCc2ccccc2C1)c1csc2c1CCCCC2 | 8.05 |
| CC(=O)c1c(C(=O)c2ccccc2)sc2ccccc12 | -7.61 |
| C=CCC(CC=C)(NC(=O)c1ccc(F)cc1)c1ccccc1 | 3.34 |
| O=C(Cn1nc(Cc2ccncc2)c2ccccc2c1=O)N1CCN(C(=O)c2ccco2)CC1 | -1.21 |
| CN1CCN(c2ccc([N+](=O)[O-])cc2Cl)CC1 | -2.44 |
| CCCCNc1nc2c(c(=O)n(C)c(=O)n2C)n1C | 1.39 |
| CC(C)c1ccc2oc(-c3ccc(N)cc3)nc2c1 | -0.0925 |
| CC(NC(=O)CN1CCOCC1)C1CC1 (stereo not drawn) | -1.56 |
| COC(=O)CCC(=O)c1ccc(Br)s1 | -3.82 |
| Cc1cccn2c(=O)c3cc(C(=O)NCCc4ccccc4)c(=N)n(CCCn4ccnc4)c3nc12 | -1.92 |

| Compound | % Inhibition @ 10 uM [%] |
| --- | --- |
| Cc1ccccc1N1C(=O)CC(=O)NC1=S | -0.414 |
| CCC(C)Sc1nc(O)c(C(C)CC)c(O)n1 (stereo not drawn) | -5.84 |
| O=C(Nc1nc2nc(-c3ccccc3)cc(O)n2n1)c1ccco1 | -1.31 |
| COc1cccc(C2(O)CCS(=O)CC2CN(C)C)c1 (stereo not drawn) | -4.12 |
| Cc1cc(C)c(Cc2c(C)cc(C)c(/C=N/O)c2C)c(C)c1/C=N/O | -3.38 |
| COc1cccc(-c2nnc3sc(NC(=O)COc4ccccc4)nn23)c1 | 3.64 |
| Cc1ccc(C2C(C#N)=C(N)Oc3c2c(O)nc2c3sc3nc(C)cc(C)c32)cc1 (stereo not drawn) | -1.84 |
| CC(C(=O)NCCN(C)C)n1c2ccccc2c2cnn(C)c(=O)c21 (stereo not drawn) | -0.281 |
| CCOC(=O)N1CCC(N2CCN(S(=O)(=O)c3ccccc3)CC2)CC1 | -1.6 |
| COC(=O)c1ccc(NC(=O)c2ccc(C(C)(C)C)cc2)cc1 | -2.5 |
| c1ccc(CSc2nncn3c2cc2sccc23)nc1 | -11.9 |
| O=C(O)[C@H](Cc1ccccc1)N1C(=O)c2ccncc2C1=O | -2.88 |
| CCOC(=O)N1CCN(S(=O)(=O)N2CCCC(C(=O)NCc3ccc(C)cc3)C2)CC1 (stereo not drawn) | 3.66 |
| CC(C)c1nnc(N2C(=O)c3oc4ccccc4c(=O)c3C2c2cccnc2)s1 (stereo not drawn) | 1.19 |
| CCOC(=O)C1=C(CC)OC(N)=C(C#N)C1c1ccoc1 (stereo not drawn) | 27.5 |
| FC(F)(F)c1ccc(Cl)c(N2N=C(/C=C/c3cccs3)CC2c2cccs2)c1 (stereo not drawn) | 3.32 |
| O=C(O)C1CCN(S(=O)(=O)c2ccc(-c3nn[nH]n3)cc2)CC1 | -2.84 |
| C=C(C)Cn1c(N2CCN(CCO)CC2)nc2c1c(=O)n(C)c(=O)n2C | 4 |
| O=C(NCc1ccc2c(c1)OCO2)c1ccc(Oc2ccccc2)cc1 | 5.39 |
| Cc1ccc(-n2nc3c(c2NC(=O)C2CC2)CS(=O)(=O)C3)cc1 | 2.5 |
| O[C@H]1CC[C@H](NC2CCCCCCC2)CC1 | 0.217 |
| CC(C)OCCCNC(=O)c1ccc(CSc2nc3ccncc3n2Cc2ccccc2F)cc1 | -3.34 |
| COc1ccc(S(=O)(=O)Nc2cccc(-c3cn4ccsc4n3)c2)cc1OC | 3.99 |
| CCC(C)n1nc(O)c2c1NC(=O)CSC2c1ccc(C)cc1 (stereo not drawn) | -0.666 |
